Reference: article PMC12231567
Results are given in words; binding and its absence hold for the method and conditions named. Some results given as binding are weak or reduced against the parent protein; the word gives no strength. Tags and fused reporters may be left off the sequences shown.

What was measured:
Test in all cases: two-hybrid; cotransformation of pGBKT7 (BD, bait) and pGADT7 (AD, prey) into S. cerevisiae Y2H Gold; drop dilutions on -LT and -LTH (triple dropout) medium, 30 °C
[1] = target: T1, αKNL2-C (C-terminal fragment of αKNL2, 364 to 599 aa) fused to the GAL4 DNA-binding domain (Arabidopsis thaliana) (UniProt F4KCE9)
T1 sequence: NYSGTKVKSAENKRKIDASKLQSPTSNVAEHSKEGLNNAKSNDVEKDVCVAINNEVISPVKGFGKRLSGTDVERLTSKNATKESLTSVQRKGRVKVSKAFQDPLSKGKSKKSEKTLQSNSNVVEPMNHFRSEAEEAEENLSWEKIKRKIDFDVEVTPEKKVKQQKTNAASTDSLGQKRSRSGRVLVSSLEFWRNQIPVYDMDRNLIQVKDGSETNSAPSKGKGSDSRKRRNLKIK

[2] = target: T2, αKNL2-N (N-terminal fragment of αKNL2, 1 to 363 aa) fused to the GAL4 DNA-binding domain (Arabidopsis thaliana) (UniProt F4KCE9)
T2 sequence: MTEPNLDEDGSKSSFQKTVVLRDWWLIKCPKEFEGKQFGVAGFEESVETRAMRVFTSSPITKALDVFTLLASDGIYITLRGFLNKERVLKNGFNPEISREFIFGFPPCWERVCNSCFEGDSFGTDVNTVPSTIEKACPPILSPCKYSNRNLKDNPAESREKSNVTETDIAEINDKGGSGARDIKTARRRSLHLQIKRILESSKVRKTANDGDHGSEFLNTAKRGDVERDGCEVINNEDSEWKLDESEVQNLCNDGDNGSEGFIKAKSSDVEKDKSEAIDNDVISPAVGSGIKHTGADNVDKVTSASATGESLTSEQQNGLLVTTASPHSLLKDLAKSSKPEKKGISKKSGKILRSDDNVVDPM

[3] = target: T3, αKNL2^ΔD-box1 fused to the GAL4 DNA-binding domain (Arabidopsis thaliana) (UniProt F4KCE9)
T3 sequence: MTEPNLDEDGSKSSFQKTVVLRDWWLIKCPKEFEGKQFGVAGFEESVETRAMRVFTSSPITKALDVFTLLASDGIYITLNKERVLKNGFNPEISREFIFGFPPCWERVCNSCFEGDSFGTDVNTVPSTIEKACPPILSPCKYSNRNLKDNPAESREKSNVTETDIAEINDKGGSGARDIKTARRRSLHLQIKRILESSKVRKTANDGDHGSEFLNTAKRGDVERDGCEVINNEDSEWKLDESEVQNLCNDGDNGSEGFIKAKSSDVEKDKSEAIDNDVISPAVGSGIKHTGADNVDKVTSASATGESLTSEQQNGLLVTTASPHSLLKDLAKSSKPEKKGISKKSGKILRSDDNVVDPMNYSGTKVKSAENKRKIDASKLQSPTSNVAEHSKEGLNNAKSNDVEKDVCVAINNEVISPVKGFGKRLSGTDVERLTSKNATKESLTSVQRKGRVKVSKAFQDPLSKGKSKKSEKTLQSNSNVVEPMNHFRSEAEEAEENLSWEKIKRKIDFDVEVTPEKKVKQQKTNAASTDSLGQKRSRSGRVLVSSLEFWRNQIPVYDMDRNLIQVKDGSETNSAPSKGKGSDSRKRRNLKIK

[4] = target: T4, αKNL2 (KINETOCHORE NULL2), full length, fused to the GAL4 DNA-binding domain (Arabidopsis thaliana) (UniProt F4KCE9)
T4 sequence: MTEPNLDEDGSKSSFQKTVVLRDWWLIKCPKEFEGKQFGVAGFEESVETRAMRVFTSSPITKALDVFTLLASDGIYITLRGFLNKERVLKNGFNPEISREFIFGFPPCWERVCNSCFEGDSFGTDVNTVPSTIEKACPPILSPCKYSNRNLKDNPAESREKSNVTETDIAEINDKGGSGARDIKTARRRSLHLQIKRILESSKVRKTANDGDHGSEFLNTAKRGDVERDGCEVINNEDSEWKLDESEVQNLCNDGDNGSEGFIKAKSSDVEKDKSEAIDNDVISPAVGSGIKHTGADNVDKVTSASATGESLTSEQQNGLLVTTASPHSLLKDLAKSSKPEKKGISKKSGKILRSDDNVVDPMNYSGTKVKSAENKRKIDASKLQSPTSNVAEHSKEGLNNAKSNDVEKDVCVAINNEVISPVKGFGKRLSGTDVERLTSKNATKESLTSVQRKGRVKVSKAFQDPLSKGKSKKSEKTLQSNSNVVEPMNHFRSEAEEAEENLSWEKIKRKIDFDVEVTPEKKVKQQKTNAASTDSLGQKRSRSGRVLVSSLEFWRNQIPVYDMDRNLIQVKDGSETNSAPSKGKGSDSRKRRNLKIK

[5] = target: T5, αKNL2^ΔD-box2 fused to the GAL4 DNA-binding domain (Arabidopsis thaliana) (UniProt F4KCE9)
T5 sequence: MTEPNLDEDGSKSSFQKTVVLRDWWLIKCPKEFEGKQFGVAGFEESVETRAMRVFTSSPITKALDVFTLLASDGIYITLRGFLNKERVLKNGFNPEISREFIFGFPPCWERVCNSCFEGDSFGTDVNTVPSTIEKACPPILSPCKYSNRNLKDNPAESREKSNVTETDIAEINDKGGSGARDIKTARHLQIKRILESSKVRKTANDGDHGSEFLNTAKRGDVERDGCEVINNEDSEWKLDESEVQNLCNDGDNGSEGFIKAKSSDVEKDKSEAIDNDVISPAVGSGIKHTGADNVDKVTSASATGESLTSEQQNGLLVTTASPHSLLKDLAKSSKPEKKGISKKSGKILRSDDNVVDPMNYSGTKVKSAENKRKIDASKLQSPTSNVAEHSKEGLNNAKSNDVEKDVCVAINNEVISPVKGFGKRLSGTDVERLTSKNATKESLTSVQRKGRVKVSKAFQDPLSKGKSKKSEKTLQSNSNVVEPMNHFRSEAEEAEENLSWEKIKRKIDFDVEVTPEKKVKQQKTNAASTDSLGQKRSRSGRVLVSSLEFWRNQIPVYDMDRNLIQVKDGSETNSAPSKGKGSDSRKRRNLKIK

binding [1]: binds
binding [2]: binds
binding [3]: no binding
binding [4]: binds
binding [5]: binds
B1: CDC20.1 (Cell Division Cycle 20.1) fused to the GAL4 activation domain (protein, UniProt Q9SZA4 1-457)
chain: MDAGMNNTSSHYKTQARCPLQEHFLPRKPSKENLDRFIPNRSAMNFDYAHFALTEGRKGKDQTAAVSSPSKEAYRKQLAETMNLNHTRILAFRNKPQAPVELLPSNHSASLHQQPKSVKPRRYIPQTSERTLDAPDIVDDFYLNLLDWGSANVLAIALDHTVYLWDASTGSTSELVTIDEEKGPVTSINWAPDGRHVAVGLNNSEVQLWDSASNRQLRTLKGGHQSRVGSLAWNNHILTTGGMDGLIINNDVRIRSPIVETYRGHTQEVCGLKWSGSGQQLASGGNDNVVHIWDRSVASSNSTTQWLHRLEEHTSAVKALAWCPFQANLLATGGGGGDRTIKFWNTHTGACLNSVDTGSQVCSLLWSKNERELLSSHGFTQNQLTLWKYPSMVKMAELTGHTSRVLYMAQSPDGCTVASAAGDETLRFWNVFGVPETAKKAAPKAVSEPFSHVNRIR
